# Results: the supplement of paper PMC8728848
# This is one part of the list.
# What was measured:
# Experiment in all cases: glycan array binding signal (z-score within array); higher = stronger binding
# Conditions in all cases: glycan notation: IUPAC condensed, linker removed
# [1] = biological target: GlcNAc(b1-4)GlcNAc(b1-4)GlcNAc(b1-4)GlcNAc(b1-4)GlcNAc
# Outline: (§1)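 Negative Z-scores can be read as non-binding. The Z-score is calculated within each array and then averaged across arrays of one protein sequence at different concentrations or buffers and across linkers. Arrays, 3228 in all, were curated from the Consortium for Functional Glycomics database and kept only where the protein sequence was available.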
# [2] = biological target: GlcNAc(b1-4)GlcNAc(b1-4)GlcNAc(b1-4)GlcNAc(b1-4)GlcNAc(b1-4)GlcNAc
# Outline: as §1
# [3] = biological target: GlcNAc(b1-4)[GlcNAc(b1-6)]GalNAc
# Outline: as §1
# [4] = biological target: GlcNAc(b1-6)Gal(b1-4)GlcNAc
# Outline: as §1
# [5] = biological target: GlcNAc(b1-6)GalNAc
# Outline: as §1
# [6] = biological target: GlcNAc6S(b1-3)Gal(b1-4)GlcNAc
# Outline: as §1
# [7] = biological target: Kdn(a2-3)Gal(b1-3)GalNAc
# Outline: as §1
# [8] = biological target: Kdn(a2-3)Gal(b1-3)GlcNAc
# Outline: as §1
# [9] = biological target: Kdn(a2-3)Gal(b1-4)Glc
# Outline: as §1
# [10] = biological target: Kdn(a2-3)Gal(b1-4)GlcNAc
# Outline: as §1
# [11] = biological target: Kdn(a2-3)Gal(b1-4)[Fuc(a1-3)]GlcNAc
# Outline: as §1
# [12] = biological target: Kdn(a2-6)Gal(b1-4)GlcNAc
# Outline: as §1
# [13] = biological target: Man(a1-2)Man(a1-2)Man(a1-3)Man
# Outline: as §1
# [14] = biological target: Man(a1-2)Man(a1-2)Man(a1-6)[Man(a1-3)]Man
# Outline: as §1
# [15] = biological target: Man(a1-2)Man(a1-3)Man
# Outline: as §1
# [16] = biological target: Man(a1-2)Man(a1-3)[Man(a1-2)Man(a1-6)]Man
# Outline: as §1
# [17] = biological target: Man(a1-2)Man(a1-3)[Man(a1-2)Man(a1-6)]Man(a1-6)[Man(a1-2)Man(a1-2)Man(a1-3)]Man
# Outline: as §1
# [18] = biological target: Man(a1-2)Man(a1-3)[Man(a1-2)Man(a1-6)]Man(a1-6)[Man(a1-2)Man(a1-2)Man(a1-3)]Man(b1-4)GlcNAc(b1-4)GlcNAc
# Outline: as §1
# [19] = biological target: Man(a1-2)Man(a1-3)[Man(a1-6)]Man(a1-6)[Man(a1-2)Man(a1-3)]Man(b1-4)GlcNAc(b1-4)GlcNAc
# Outline: as §1
# [20] = biological target: Man(a1-2)Man(a1-6)[Man(a1-3)]Man(a1-6)[Man(a1-2)Man(a1-2)Man(a1-3)]Man
# Outline: as §1
# [21] = biological target: Man(a1-2)Man(a1-6)[Man(a1-3)]Man(a1-6)[Man(a1-2)Man(a1-2)Man(a1-3)]Man(b1-4)GlcNAc(b1-4)GlcNAc
# Outline: as §1
# [22] = biological target: Man(a1-3)[Man(a1-6)]Man
# Outline: as §1
# [23] = biological target: Man(a1-3)[Man(a1-6)]Man(a1-6)[Man(a1-2)Man(a1-3)]Man(b1-4)GlcNAc(b1-4)GlcNAc
# Outline: as §1
# [24] = biological target: Man(a1-3)[Man(a1-6)]Man(a1-6)[Man(a1-3)]Man
# Outline: as §1
# [25] = biological target: Man(a1-3)[Man(a1-6)]Man(a1-6)[Man(a1-3)]Man(b1-4)GlcNAc(b1-4)GlcNAc
# Outline: as §1
# [26] = biological target: Man(a1-3)[Man(a1-6)]Man(b1-4)GlcNAc(b1-4)GlcNAc
# Outline: as §1
# [27] = biological target: Man(a1-3)[Man(a1-6)]Man(b1-4)GlcNAc(b1-4)[Fuc(a1-6)]GlcNAc
# Outline: as §1
# [28] = biological target: Man(a1-6)Man
# Outline: as §1
# [29] = biological target: Man(b1-4)GlcNAc
# Outline: as §1
# [30] = biological target: MurNAc(b1-4)GlcNAc
# Outline: as §1
# [31] = biological target: Neu5Ac(a2-3)Gal
# Outline: as §1
# [32] = biological target: Neu5Ac(a2-3)Gal(b1-3)GalNAc
# Outline: as §1
# [33] = biological target: Neu5Ac(a2-3)Gal(b1-3)GalNAc(b1-3)Gal(a1-4)Gal(b1-4)Glc
# Outline: as §1
# [34] = biological target: Neu5Ac(a2-3)Gal(b1-3)GalNAc(b1-4)[Neu5Ac(a2-3)]Gal(b1-4)Glc
# Outline: as §1
# [35] = biological target: Neu5Ac(a2-3)Gal(b1-3)GalNAc(b1-4)[Neu5Ac(a2-8)Neu5Ac(a2-3)]Gal(b1-4)Glc
# Outline: as §1
# [36] = biological target: Neu5Ac(a2-3)Gal(b1-3)GalNAc6S
# Outline: as §1
# [37] = biological target: Neu5Ac(a2-3)Gal(b1-3)GlcNAc
# Outline: as §1
# [38] = biological target: Neu5Ac(a2-3)Gal(b1-3)GlcNAc(b1-2)Man
# Outline: as §1
# [39] = biological target: Neu5Ac(a2-3)Gal(b1-3)GlcNAc(b1-2)Man(a1-3)[GlcNAc(b1-4)][Neu5Ac(a2-3)Gal(b1-3)GlcNAc(b1-2)Man(a1-6)]Man(b1-4)GlcNAc(b1-4)GlcNAc
# Outline: as §1
# [40] = biological target: Neu5Ac(a2-3)Gal(b1-3)GlcNAc(b1-2)Man(a1-3)[Neu5Ac(a2-3)Gal(b1-3)GlcNAc(b1-2)Man(a1-6)]Man(b1-4)GlcNAc(b1-4)GlcNAc
# Outline: as §1
# [41] = biological target: Neu5Ac(a2-3)Gal(b1-3)GlcNAc(b1-3)Gal(b1-3)GlcNAc
# Outline: as §1
# [42] = biological target: Neu5Ac(a2-3)Gal(b1-3)GlcNAc(b1-3)Gal(b1-4)GlcNAc
# Outline: as §1
# [43] = biological target: Neu5Ac(a2-3)Gal(b1-3)GlcNAc(b1-3)GalNAc
# Outline: as §1
# [44] = biological target: Neu5Ac(a2-3)Gal(b1-3)GlcNAc(b1-4)Gal(b1-4)Glc
# Outline: as §1
# [45] = biological target: Neu5Ac(a2-3)Gal(b1-3)GlcNAc(b1-6)GalNAc
# Outline: as §1
binder,measurement,setting,value
"HBHA-Rv (Mycobacterium tuberculosum), P0A5P6 (protein) MAENSNIDDIKAPLLAALGAADLALATVNELITNLRERAEETRTDTRSRVEESRARLTKLQEDLPEQLTELREKFTAEELRKAAEGYLEAATSRYNELVERGEAALERLRSQQSFEEVSARAEGYVDQAVELTQEALGTVASQTRAVGERAAKLVGIELPKKAAPAKKAAPAKKAAPAKKAAAKKAPAKKAAAKKVTQK",glycan array binding signal (z-score),[1],4.22
same,glycan array binding signal (z-score),[2],3.44
same,glycan array binding signal (z-score),[3],0.481
same,glycan array binding signal (z-score),[4],-0.139
same,glycan array binding signal (z-score),[5],0.067
same,glycan array binding signal (z-score),[6],-0.165
same,glycan array binding signal (z-score),[7],-0.31
same,glycan array binding signal (z-score),[8],-0.129
same,glycan array binding signal (z-score),[9],-0.38
same,glycan array binding signal (z-score),[10],-0.312
same,glycan array binding signal (z-score),[11],-0.371
same,glycan array binding signal (z-score),[12],-0.255
same,glycan array binding signal (z-score),[13],-0.209
same,glycan array binding signal (z-score),[14],-0.15
same,glycan array binding signal (z-score),[15],0.325
same,glycan array binding signal (z-score),[16],0.243
same,glycan array binding signal (z-score),[17],-0.258
same,glycan array binding signal (z-score),[18],-0.264
same,glycan array binding signal (z-score),[19],0.639
same,glycan array binding signal (z-score),[20],-0.357
same,glycan array binding signal (z-score),[21],1.09
same,glycan array binding signal (z-score),[22],0.599
same,glycan array binding signal (z-score),[23],0.108
same,glycan array binding signal (z-score),[24],-0.429
same,glycan array binding signal (z-score),[25],-0.275
same,glycan array binding signal (z-score),[26],0.222
same,glycan array binding signal (z-score),[27],-0.167
same,glycan array binding signal (z-score),[28],-0.262
same,glycan array binding signal (z-score),[29],-0.127
same,glycan array binding signal (z-score),[30],-0.418
same,glycan array binding signal (z-score),[31],0.027
same,glycan array binding signal (z-score),[32],1.62
same,glycan array binding signal (z-score),[33],-0.294
same,glycan array binding signal (z-score),[34],-0.466
same,glycan array binding signal (z-score),[35],-0.059
same,glycan array binding signal (z-score),[36],0.764
same,glycan array binding signal (z-score),[37],0.026
same,glycan array binding signal (z-score),[38],-0.463
same,glycan array binding signal (z-score),[39],-0.317
same,glycan array binding signal (z-score),[40],-0.163
same,glycan array binding signal (z-score),[41],-0.434
same,glycan array binding signal (z-score),[42],-0.181
same,glycan array binding signal (z-score),[43],-0.403
same,glycan array binding signal (z-score),[44],-0.273
same,glycan array binding signal (z-score),[45],-0.423
